According to PubChem BioAssay AID686978 (National Center for Advancing Translational Sciences (NCATS), 2013):
The whole screen tested about 420,000 compounds, of which about 64,000 (15%) were called active. Inconclusive results, whose numbers are uncertain, are shown with a selection of clear calls. The call rests on the fitted dose curve; in most records, active means well fitted inhibition curve with a large enough effect; inconclusive means small, poorly fitted or top-dose-only effect; inactive means flat fitted curve, though single readings scatter. Potencies of inconclusive entries are left out as doubtful fits.

Assay: qHTS for Inhibitors of human tyrosyl-DNA phosphodiesterase 1 (TDP1): qHTS in cells in absence of CPT; further: nearly all actives have a fitted effect of over 55% in size
Conditions: DT40 Tdp1-/- hTDP1 cells, no CPT, ATP luminescence, 48 h; activity change, negative = growth inhibition: at 46.2 µM (top of the series) unless noted
Procedure, shortened: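 No-CPT arm: Tdp1-/-;hTDP1 DT40 cells (400/well) plus compounds, incubated ≥48 hr at 37 °C. Readout CellTiter-Glo luminescence.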
On the % scale 0 is the no-effect control and ±100 the full control effect; potency means the concentration at half of the fitted maximal effect; tags describe the fitted curve by direction and shape.

| SMILES | Potency | activity change, negative = growth inhibition |
| --- | --- | --- |
| Cc1cc(NC(=O)c2cc([N+](=O)[O-])cc([N+](=O)[O-])c2)no1 | inconclusive [inhibitor, partial curve, poor fit] |  |
| C=C(C)C1CCC(C)=C1CC(C)(C)/C=N\n1cnnc1 (configuration not stated) | active: 20.6 µM |  |
| NC(=O)[C@H]1CC2(CC(c3cccc(NC(=O)COc4ccc(Cl)cc4)c3)=NO2)CN1C(=O)[C@H]1CCC(=O)N1 (some centres not stated) | inactive |  |
| O=C1CCN(Cc2ccc(Cl)cc2Cl)C(=O)N1 | inactive |  |
| COc1ccc(C(=O)OCC(=O)NCc2ccco2)cc1OC | inactive |  |
| Oc1ccccc1/C=N/NC(=S)NCCc1ccccc1 | inconclusive [inhibitor, single point] |  |
| COc1ccc(C2(C)NC(=O)N(CC(=O)Nc3ccc(C)cc3Br)C2=O)cc1OC (configuration not stated) | inactive |  |
| CCc1ccc(CNC(=O)C2CCN(S(=O)(=O)N3CCCC3)CC2)cc1 | inactive |  |
| CCc1c(C)sc(NC(=O)c2cc(C)no2)c1C#N | inactive |  |
| O=C(c1ccccc1)C1CCN(CC(=O)N2CCN(c3ccccc3)CC2)CC1 | inconclusive [inhibitor, partial curve, poor fit] |  |
| COc1cccc(CN2CCN(Cc3ccc4cccc(F)c4n3)CC2CCO)c1 (configuration not stated) | inactive |  |
| O=C(Nc1ncccc1O)c1cccc(S(=O)(=O)N2CCCc3ccccc32)c1 | inactive |  |
| C/C(=N\NC(=O)c1n[nH]c2c1CCC2)c1ccco1 | inconclusive [inhibitor, partial curve, poor fit] |  |
| COc1cccc2cc(C(=O)NCCc3c[nH]c4ccccc34)c(=O)oc12 | inconclusive [inhibitor, single point] |  |
| Cc1noc(C(=O)Nc2c(C)nn(Cc3ccccc3)c2C)c1Cl | inconclusive [inhibitor, single point] |  |
| O=C(Cc1ccc(S(=O)(=O)N2CCOCC2)s1)N1CCN(c2cccc(C(F)(F)F)c2)CC1 | active: 3.66 µM |  |
| CCC1(c2ccc(F)cc2)NC(=O)N(CC(=O)N2CCN(C(=O)c3ccco3)CC2)C1=O (configuration not stated) | inactive |  |
| Cc1c(Cl)cccc1NC(=S)NCCc1ccc(Cl)cc1 | inconclusive [inhibitor, single point] |  |
| CC(C)c1nnc(NC(=O)CCC(=O)N2CCN(C3c4ccccc4-c4ccccc43)CC2)s1 | inconclusive [inhibitor, full curve] |  |
| CCN(CC(=O)Nc1ccccc1C(F)(F)F)C(=O)c1oc2c(Cl)cccc2c1C | inconclusive [inhibitor, single point] |  |
| N#Cc1cccc(Nc2c3c(nc4ccccc24)CCC3)c1 | inconclusive [inhibitor, single point] |  |
| CN(C)c1cccc(C(=O)NNC(=S)NC2CC3CCC2C3)c1 (configuration not stated) | inconclusive [inhibitor, single point] |  |
| CCOC(=O)CN(C(=O)COc1nc(C)cc(C)c1C#N)c1ccc(Cl)cc1 | inconclusive [inhibitor, single point] |  |
| Cc1ccc(CNC(=O)CN(C)S(=O)(=O)c2ccc(Br)s2)cc1 | inconclusive [inhibitor, single point] |  |

| SMILES | Potency | activity change, negative = growth inhibition |
| --- | --- | --- |
| CCn1c(=O)cc(OCC(=O)Nc2ccc(C)cn2)c2ccccc21 | inconclusive [inhibitor, single point] |  |
| CC(/C=N/NC(=O)Cn1nnc(N)n1)=C\c1ccc(C(C)C)cc1 | inconclusive [inhibitor, single point] |  |
| COc1ccc(OC(F)(F)F)cc1CC1(C)C(=O)Nc2ccc(-c3ccsc3)cc21 (configuration not stated) | inconclusive [inhibitor, single point] |  |
| CC(C)(C)OC(=O)N1CSC[C@H]1C(=O)NC[C@H](CC(=O)O)c1ccc(Cl)cc1 | inactive |  |
| O=C(Nc1ccc(Cl)c(Cl)c1)c1cc(S(=O)(=O)N2CCN(c3cccc(Cl)c3)CC2)ccc1F | inconclusive [inhibitor, single point] |  |
| O=C(Cc1ccc(Nc2nc3ccc(Br)cc3[nH]2)cc1)NCCc1cccs1 | inconclusive [inhibitor, single point] |  |
| COC(=O)c1ccccc1NC(=O)CCc1ccccc1 | inconclusive [inhibitor, partial curve] |  |
| Cc1nnc(SCC(=O)NC2CCCC(C)C2C)n1N (configuration not stated) | inactive |  |
| O=C(Nc1c(C(=O)N2CCN(c3ccccn3)CC2)oc2ccccc12)c1ccc([N+](=O)[O-])cc1 | inconclusive [inhibitor, single point] |  |
| Cc1cc(Br)ccc1NC(=O)c1coc(=O)c2ccccc12 | inactive |  |
| CCOc1ccc(NC(=O)c2ccc(NCC(=O)N3CCCCCC3)cc2)cc1 | inconclusive [inhibitor, single point] |  |
| CCCc1nnc(SCC(=O)N2CCOCC2)n1C | inactive |  |
| Cc1cc(CNC(=O)C2(C(F)(F)F)CC(CCCO)CCCO2)nn1C (configuration not stated) | inactive |  |
| CC(C)(C)Nc1nc(Cl)nc(Nc2ccccc2)n1 | inconclusive [inhibitor, single point] |  |
| COc1ccc([C@H]2CC(=O)C=C(c3ccc(OC)c(OC)c3)C2)cc1 | inconclusive [inhibitor, single point] |  |
| Cn1c(=O)c2c(nc(SCC(=O)NCc3ccc4c(c3)OCO4)n2Cc2ccc(F)cc2)n(C)c1=O | inconclusive [inhibitor, single point] |  |
| CC(=NNc1ccccc1)C(C)=NNc1ccccc1 | inactive |  |
| CC1Cc2ccccc2N1C(=O)CSc1nc(-c2ccco2)cc(C(F)(F)F)n1 (configuration not stated) | inconclusive [inhibitor, partial curve] |  |
| CC(C)(C)C(=O)NC(NC(=S)Nc1ccc(S(N)(=O)=O)cc1)C(Cl)(Cl)Cl (configuration not stated) | inconclusive [inhibitor, single point] |  |
| Cc1nn(CCC(=O)NCc2cccc(Br)c2)c(=O)c2nn(-c3ccccc3)c(C)c12 | inconclusive [inhibitor, single point] |  |
| O=C(c1ccc(CS(=O)c2ccccc2Cl)o1)N1CCN(c2cccc(C(F)(F)F)c2)CC1 (configuration not stated) | active: 0.517 µM |  |
| CC(C)OCCCn1c(SCC(N)=O)nc2c(sc3ccccc32)c1=O | inconclusive [inhibitor, single point] |  |
| O=C(NCCCCc1ccccc1)c1nn(-c2ccccc2F)nc1CO | inconclusive [inhibitor, single point] |  |
| Cc1cc(C(=O)COC(=O)Cc2n[nH]c(=O)c3ccccc23)c(C)n1-c1ccc2c(c1)OCO2 | active: 20.6 µM |  |

| SMILES | Potency | activity change, negative = growth inhibition |
| --- | --- | --- |
| O=C(Nc1cccc2ccccc12)NC1CC1 | inactive |  |
| O=C(Nc1ccccc1)Nc1cccc2cccnc12 | inactive |  |
| COC(=O)c1cccc(CSc2nnc(-c3ccco3)n2-c2ccccc2)c1 | inconclusive [inhibitor, single point] |  |
| COc1ccc(S(=O)(=O)Nc2ccc3c(c2)OCO3)cc1Cl | inactive |  |
| CN1C[C@@H]2[C@@H]3C(=O)N(C)C(=O)[C@@H]3[C@](C)(C1=O)N2C(=O)c1ccc(Cl)c(Cl)c1 | inactive |  |
| CC(C)(C)NCC(O)COCc1ccc(Cl)cc1 (configuration not stated) | inconclusive [inhibitor, single point] |  |
| CCOC(=O)c1ccc(-n2c(CCC(=O)O)ccc2-c2ccc(F)cc2)cc1 | inconclusive [inhibitor, single point] |  |
| COc1ccc(CN2CCN(C(=O)c3ccco3)CC2)cc1OCc1ccccc1 | active: 14.6 µM |  |
| COc1ccc(CCNC(=O)C2CCN(c3nccc(C)n3)CC2)cc1 |  | inconclusive: -12.5% [inhibitor] |
| CC(C)NC(=O)Cn1ccc2cc(S(=O)(=O)N3CCCCCC3)ccc21 | inconclusive [inhibitor, single point] |  |
| Cn1c(CO)c(-c2ccccc2)c2cc([N+](=O)[O-])ccc21 | inconclusive [inhibitor, single point] |  |
| O=C1/C(=C/c2cccs2)SC(=S)N1CCCC(=O)N(CCO)c1ccccc1 | inconclusive [inhibitor, single point] |  |
| CCCOc1ccc(C(=O)NCC(c2ccc(OC)cc2)N2CCCCC2)cc1 (configuration not stated) | inconclusive [inhibitor, single point] |  |
| O=C(Cn1nnc2ccccc21)c1ccc([N+](=O)[O-])cc1 | inconclusive [inhibitor, single point] |  |
| COc1ccc(C/C(C)=N/NC(=S)Nc2ccc(Cl)cc2)cc1 | active: 11.6 µM |  |
| CCOc1ccc(NC(=S)N2CCC(N(C)CCN3CCOCC3)CC2)cc1 | inactive |  |
| O=C1CC[C@@H](C(=O)NCC2Cc3cc(Cl)cc(-c4ccc5[nH]ccc5c4)c3O2)N1 (some centres not stated) | inactive |  |
| CCn1cc(C(=O)NCCCN2CCCC2)c(=O)c2cc(S(=O)(=O)N3CCc4ccccc4C3)ccc21 | inconclusive [inhibitor, single point] |  |
| CCOc1cccc(OCCOCCN(C)C)c1 |  | inconclusive: -30.4% [inhibitor] |
| CC(=O)Nc1cccc(-c2csc(Nc3cc(C)ccn3)n2)c1 | inconclusive [inhibitor, single point] |  |
| Cc1cccc(OCCCSc2nc(-c3ccc(C(C)(C)C)cc3)nc3cc(=O)[nH]n23)c1C | inconclusive [inhibitor, single point] |  |
| O=C(CCCCC(=O)OCC1COCO1)OCC1COCO1 (configuration not stated) | inactive |  |
| Cc1nc2ccccc2cc1C(=O)N/N=C/c1cccs1 | inactive |  |
| Cc1ccc(NC(=O)NC(=O)COC(=O)c2ccc(O)cc2O)c(C)c1 | inconclusive [inhibitor, single point] |  |
